Assay [1] deals with T1, recombinant human IL-6R (human, UniProt P08887 20-365).
T1 construct: The sandwich ELISA used a His-tagged form; also called soluble IL-6R; His-tagged human IL-6R
T1 sequence: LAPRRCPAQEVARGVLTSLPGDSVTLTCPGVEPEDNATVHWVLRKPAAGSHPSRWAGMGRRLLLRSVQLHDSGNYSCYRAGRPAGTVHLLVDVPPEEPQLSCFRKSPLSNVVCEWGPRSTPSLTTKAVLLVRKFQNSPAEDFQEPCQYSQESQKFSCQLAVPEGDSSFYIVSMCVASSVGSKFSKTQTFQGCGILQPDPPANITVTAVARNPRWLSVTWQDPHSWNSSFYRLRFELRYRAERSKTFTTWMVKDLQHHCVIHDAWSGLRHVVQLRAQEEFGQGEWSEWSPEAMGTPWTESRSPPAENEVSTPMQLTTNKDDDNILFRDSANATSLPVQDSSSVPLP
Put plainly: SPR, binder captured by anti-human antibody on GLM chip, IL-6R as analyte; average of 6 experiments. The source says: (§1) To determine the affinity and kinetic parameters of FynomAb binding to human IL-17A and human IL-6R, an anti-human antibody was amine coupled to a GLM chip.

Assay [2] has as its target T2, recombinant human IL-17A (human, UniProt Q16552 24-155, limits assumed).
T2 construct: In the flow cytometry assay it was biotinylated; also called soluble IL-17A
The assay is described as follows: SPR, binder captured by anti-human antibody on GLM chip, IL-17A as analyte; average of 5 experiments.
Text: as §1
On the technique in general: In SPR one partner is held on a chip, and binding of the other changes the refractive index at the surface.

Assay [3] addresses T3, human IL-6R on the surface of HEK Blue IL-6 cells (human, UniProt P08887 20-468).
T3 construct: HEK Blue IL-6 cells (Invivogen); also called cell surface IL-6R; HEK-Blue-IL6 cells (IL6R+)
T3 sequence: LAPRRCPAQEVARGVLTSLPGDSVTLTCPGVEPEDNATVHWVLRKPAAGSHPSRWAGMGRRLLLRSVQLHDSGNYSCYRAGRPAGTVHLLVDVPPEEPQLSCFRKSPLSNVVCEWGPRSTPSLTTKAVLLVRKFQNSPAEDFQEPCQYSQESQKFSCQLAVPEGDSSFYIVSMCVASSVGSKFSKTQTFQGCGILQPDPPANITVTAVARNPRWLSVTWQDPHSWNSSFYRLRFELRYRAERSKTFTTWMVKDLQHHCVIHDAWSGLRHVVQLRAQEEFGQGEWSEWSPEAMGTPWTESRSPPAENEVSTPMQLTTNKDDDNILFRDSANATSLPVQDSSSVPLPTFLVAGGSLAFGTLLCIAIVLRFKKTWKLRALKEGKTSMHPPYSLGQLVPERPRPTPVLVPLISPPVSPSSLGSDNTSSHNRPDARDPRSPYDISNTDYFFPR
The assay is described as follows: flow cytometry: HEK-Blue IL-6 cells (IL-6R+), drug titrated about 0.005-300 nM, detected with anti-human IgG-Alexa488. In general terms: In flow cytometry, cells or beads pass a laser one at a time.

Assay [4] addresses T1, recombinant human IL-6R. The assay is described as follows: SPR, binder captured by anti-human antibody on GLM chip, IL-6R as analyte; average of 6 experiments; column head prints nM, value taken as M.
Text: as §1

Assay [5] concerns the target T2, recombinant human IL-17A. Put plainly: SPR, binder captured by anti-human antibody on GLM chip, IL-17A as analyte; average of 5 experiments; column head prints nM, value taken as M.
Text: as §1

Assay [6] has as its target T2, recombinant human IL-17A. The assay is described as follows: dual-binding sandwich ELISA: human IL-17A coated, FynomAb titrated 50-0.0032 nM in PBS (day 0), His-tagged human IL-6R added, anti-His-HRP. A general note: In an ELISA, binding on a coated surface is turned into a signal by an enzyme label.
The target in assay [7] is T1, recombinant human IL-6R. Put plainly: SPR (representative sensorgram with fit): antibody captured on an amine-coupled anti-human antibody (GLM chip), recombinant human IL-6R flowed as analyte.
Text: as §1

The target in assay [8] is T2, recombinant human IL-17A. Put plainly: SPR (representative sensorgram with fit): antibody captured on an amine-coupled anti-human antibody (GLM chip), recombinant human IL-17A flowed as analyte.
Text: as §1

For assay [9], the target named is T3, human IL-6R on the surface of HEK Blue …. The assay is described as follows: flow cytometry, simultaneous binding: drug titrated on HEK-Blue IL-6 cells (IL-6R+), cell-bound drug detected with biotinylated IL-17A and streptavidin-APC.
Assay [10] shares this target. The assay is described as follows: flow cytometry: HEK-Blue IL-6 cells (IL-6R+), drug titrated about 0.005-300 nM, detected with anti-human IgG-Alexa488. The source holds these as a separate data set.
Assay [11] shares this target. Put plainly: flow cytometry, simultaneous binding: drug titrated on HEK-Blue IL-6 cells (IL-6R+), cell-bound drug detected with biotinylated IL-17A and streptavidin-APC. The source holds these as a separate data set.
For assay [12], the target named is T4, recombinant human glycosylated IL-17A (produced in-house in HEK EBNA cells) (human, UniProt Q16552 24-155, glycosylated (sites not given); biotinylated with NHS-PEO4-biotin in the lysate ELISA). The assay is described as follows: cell-based or functional assay.
In assay [13] the target is T4, recombinant human glycosylated IL-17A …. Put plainly: SPR (BIAcore T200), 2000 RU glycosylated IL-17A amine-coupled on CM5 chip, monomeric fynomer injected.
Assay [14] shares this target. Put plainly: cell-based or functional assay. This is another data set of the same source.

Positions count from the first letter of the chain named. Read-outs that look alike come from different tables or passages of the source.

T2 sequence (Q16552 24-155 limits assumed): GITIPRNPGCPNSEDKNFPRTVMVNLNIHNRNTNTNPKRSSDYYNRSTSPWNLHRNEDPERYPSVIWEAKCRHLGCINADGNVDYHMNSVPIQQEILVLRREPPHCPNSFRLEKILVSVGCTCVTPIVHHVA

B1: COVA803 (bispecific antibody, human IgG1, kappa)
heavy: QVQLQESGPGLVRPSQTLSLTCTVSGYSITSDHAWSWVRQPPGRGLEWIGYISYSGITTYNPSLKSRVTMLRDTSKNQFSLRLSSVTAADTAVYYCARSLARTTAMDYWGQGSLVTVSSASTKGPSVFPLAPSSKSTSGGTAALGCLVKDYFPEPVTVSWNSGALTSGVHTFPAVLQSSGLYSLSSVVTVPSSSLGTQTYICNVNHKPSNTKVDKKV[sequence of human IgG1 Fc omitted]GGGSGGGGSGGGGSGVTLFVALYDYSARGQLDLSFHKGEKFQILSTHEYEDWWEARSLTTGETGYIPSNYVAPVDSIQ
light: DIQMTQSPSSLSASVGDRVTITCRASQDISSYLNWYQQKPGKAPKLLIYYTSRLHSGVPSRFSGSGSGTDFTFTISSLQPEDIATYYCQQGNTLPYTFGQGTKVEIKRTVAAPSVFIFPPSDEQLKSGTASVVCLLNNFYPREAKVQWKVDNALQSGNSQESVTEQDSKDSTYSLSSTLTLSKADYEKHKVYACEVTHQGLSSPVTKSFNRGEC
notes: made in CHO cells; also called 803 in-house
As usually defined, the koff is the rate constant with which the complex falls apart. One may read the kon as the second-order rate constant of association. What is called EC50 (read off the curve) is the concentration at which the effect is half-maximal. Usually Kd stands for the free concentration of one partner at which half of the binding sites on the other are occupied at equilibrium, for simple one-to-one binding. Consider B1, for which the koff in assay [1] came to 0.000219 s⁻¹; in assay [2], 0.000357 s⁻¹; in assay [7] it was 0.00028 s⁻¹; in assay [8], 0.00154 s⁻¹. In addition, the kon in assay [1] came to 363000 M⁻¹ s⁻¹; in assay [2], 4.96e+06 M⁻¹ s⁻¹; in assay [7], 260000 M⁻¹ s⁻¹; in assay [8], 5.22e+06 M⁻¹ s⁻¹. Also, the “EC50 (read off the curve)” value in assay [3] is roughly 1 nM; in assay [6], roughly 3 nM; in assay [9] it was roughly 1 nM. For the same molecule, the Kd amounted to 0.604 nM in assay [4], 0.0689 nM in assay [5], 1.08 nM in [7] and 0.294 nM in [8].

B2: COVA802 (bispecific antibody, human IgG1, kappa)
heavy: QVQLQESGPGLVRPSQTLSLTCTVSGYSITSDHAWSWVRQPPGRGLEWIGYISYSGITTYNPSLKSRVTMLRDTSKNQFSLRLSSVTAADTAVYYCARSLARTTAMDYWGQGSLVTVSS[sequence of human IgG1 constant region omitted]
light: DIQMTQSPSSLSASVGDRVTITCRASQDISSYLNWYQQKPGKAPKLLIYYTSRLHSGVPSRFSGSGSGTDFTFTISSLQPEDIATYYCQQGNTLPYTFGQGTKVEIKRTVAAPSVFIFPPSDEQLKSGTASVVCLLNNFYPREAKVQWKVDNALQSGNSQESVTEQDSKDSTYSLSSTLTLSKADYEKHKVYACEVTHQGLSSPVTKSFNRGECGGGGSGGGGSGGGGSGVTLFVALYDYKQKGHLDLSFHKGEKFQILSTHEYEDWWEARSLTTGETGYIPSNYVAPVDSIQ
notes: made in CHO cells; also called 802 in-House
For B2, the entries for the “EC50 (read off the curve)” value in assay [10] and in assay [11] were roughly 0.7 nM and roughly 0.8 nM, respectively. In addition, the values for the Kd in assay [4] and in assay [7] were 0.395 nM and 0.351 nM, respectively.

B3: 11L10-A05 (designed binder)
chain: GVTLFVALYDYSSRGVLDLSFHKGEKFQILSTHEYEDWWEARSLTTGETGYIPSNYVAPVDSIQ
notes: Fyn SH3-derived fynomer
For B3, in assay [12], the “IC50 value, IL-6 production by human dermal fibroblasts stimulated with glycosylated IL-17A and TNFα” value (“IC50 value, IL-6 production” below) came to 28 nM. For the same molecule, in assay [13], the Kd stood at 7 nM.

B4: 1L3-B09 (designed binder)
chain: B3 chain with S12A, S13N, R14H, V16N, L17R
notes: Fyn SH3-derived fynomer; also called 1L3-B9
In the case of B4, in assay [12], the “IC50 value, IL-6 production” value came to 300 nM. Besides, the Kd in [13] worked out at 245 nM.

B5: 11L0-C06 (designed binder)
chain: B3 chain with S12K, S13Q, R14K, V16H
notes: Fyn SH3-derived fynomer; also called 11L0-C6
For the molecule B5, the “IC50 value, IL-6 production” value in assay [12] was 35 nM. In assay [13], the Kd came to 7 nM.

B6: 11L6-F03 (designed binder)
chain: B3 chain with S12D, S13K, R14L, G15S, V16A
notes: Fyn SH3-derived fynomer
On to B6, for which the “IC50 value, IL-6 production” value in [12] was 63 nM. For the same molecule, the Kd in assay [13] turned out to be 11 nM.

B7: 11L5-B06 (designed binder)
chain: B3 chain with S13A, V16Q
notes: Fyn SH3-derived fynomer
As to B7, in assay [12], the “IC50 value, IL-6 production” value turned out to be 43 nM. Also, the Kd in [13] is 12 nM.

B8: 11L11-A09 (designed binder)
chain: B3 chain with S13R, R14K, G15S, V16N
notes: Fyn SH3-derived fynomer
As to B8, in assay [14], the “IC50 value, IL-6 production” value is 66 nM. Further, the Kd in [13] came to 24 nM.

B9: 11L9-C09 (designed binder)
chain: B3 chain with S12E, R14V, G15S, V16W, L17S
notes: Fyn SH3-derived fynomer
Consider B9, for which the “IC50 value, IL-6 production” value in assay [12] worked out at 32 nM. Also, the Kd in assay [13] is 11 nM.

(Values after patent US20170081412A1 (MITSUBISHI TANABE PHARMA, published 2017).)
